{"source": "paper PMC10082178", "about": "“Divalent nanobodies to platelet CLEC-2 can serve as agonists or antagonists” (Communications Biology, 2023)", "proteins": {"B1": {"name": "N-terminal eGFP-tagged human CLEC-2 (CLEC-2-eGFP) (receptor)", "chain": "MQDEDGYITLNIKTRKPALISVGSASSSWWRVMALILLILCVGMVVGLVALGIW[about 200 residues omitted here]", "notes": "C-type lectin-like receptor 2 (CLEC-2), human; eGFP joined through a linker to the cytosolic N-terminus; also called C-type lectin-like receptor 2; source: HEK293T, transiently transfected (PEI), on cells; DT40 chicken B cells, electroporated, for the NFAT reporter assay; not shown: eGFP (A206K), N-terminal, kept"}, "B2": {"name": "CLEC-2 of human platelets (receptor)", "chain": "not shown", "notes": "C-type lectin-like receptor 2 (CLEC-2), endogenous glycosylated receptor of human platelets; also called platelet CLEC-2; source: endogenous, resting human platelets; extracted in styrene maleic acid lipid particles (SMALPs) for SMA-PAGE; on washed platelets for aggregometry"}}, "key": {"[1]": {"target": "the molecule itself", "test": "fluorescence correlation spectroscopy with photon counting histogram analysis; HEK293T cells transfected with increasing CLEC-2-eGFP DNA (50, 100 or 500 ng); molecular brightness against expression"}, "[2]": {"target": "the molecule itself", "test": "fluorescence correlation spectroscopy with photon counting histogram analysis; eGFP-tagged receptors on the plasma membrane of transfected HEK293T cells (100 ng CLEC-2-eGFP, 500 ng CD28-eGFP or 100 ng CD86-eGFP DNA); molecular brightness compared with monomer and dimer controls; 25 °C"}, "[3]": {"target": "the molecule itself", "test": "native gel or EMSA; SMA-PAGE: whole cell SMALPs of resting human platelets (2.5% SMA, NaCl to 500 mM) on native Tris-Glycine gels, western blot with anti-αIIb or anti-CLEC-2 AYP2"}}, "data": [{"protein": "B1", "values": [{"measurement": "molecular brightness, fold over monomeric CD86", "setting": "[1]", "value": 2.3, "unit": "fold"}, {"measurement": "stoichiometry N", "setting": "[2]", "value": 2}]}, {"protein": "B2", "values": [{"measurement": "stoichiometry N", "setting": "[3]", "value": 2}]}]}
